According to EPA's CvTdb concentration-time database:
The source gives many values for each of these; only a part stands here.

Legend:
Assay in all cases: concentration in plasma after dosing
[1] = test system: Rat; settings: 6 h; dosed: Perfluorooctane Sulfonate; 2 mg/kg; oral; Female; Harlan Sprague Dawley
[2] = test system: Rat; settings: 864 h; dosed: Perfluorooctane Sulfonate; 2 mg/kg; oral; Female; Harlan Sprague Dawley
[3] = test system: Rat; settings: 1848 h; dosed: Perfluorooctane Sulfonate; 20 mg/kg; oral; Female; F344
[4] = test system: Rat; settings: 24 h; dosed: Perfluorooctane Sulfonate; 20 mg/kg; oral; Female; F344
[5] = test system: Rat; settings: 24 h; dosed: Perfluorodecanoic acid; 10 mg/kg; oral; Female; Harlan Sprague Dawley
[6] = test system: Rat; settings: dosed: Perfluorodecanoic acid, 10 mg/kg, oral, Male, Harlan Sprague Dawley
[7] = test system: Rat; settings: dosed: Perfluorodecanoic acid, 2 mg/kg, oral, Male, Harlan Sprague Dawley
[8] = test system: Rat; settings: dosed: Perfluorodecanoic acid, 20 mg/kg, oral, Male, Harlan Sprague Dawley
[9] = test system: Rat; settings: dosed: Perfluorodecanoic acid, 2 mg/kg, oral, Female, Harlan Sprague Dawley
[10] = test system: Rat; settings: dosed: Perfluorodecanoic acid, 10 mg/kg, oral, Male, Harlan Sprague Dawley; remark: listed apart in the source
[11] = test system: Rat; settings: dosed: Perfluorodecanoic acid, 10 mg/kg, oral, Female, Harlan Sprague Dawley
[12] = test system: Rat; settings: dosed: Perfluorodecanoic acid, 20 mg/kg, oral, Male, Harlan Sprague Dawley; remark: listed apart in the source
[13] = test system: Rat; settings: dosed: Perfluorodecanoic acid, 20 mg/kg, oral, Female, Harlan Sprague Dawley
[14] = test system: Rat; settings: dosed: Perfluorodecanoic acid, 20 mg/kg, oral, Female, Harlan Sprague Dawley; remark: listed apart in the source
[15] = test system: Rat; settings: dosed: Perfluorooctanoic acid, 6 mg/kg, iv, Male, F344
[16] = test system: Rat; settings: dosed: Perfluorooctanoic acid, 40 mg/kg, iv, Male, F344
[17] = test system: Rat; settings: dosed: Perfluorooctanoic acid, 48 mg/kg, oral, Male, Harlan Sprague Dawley
[18] = test system: Rat; settings: 1 h; dosed: Fluorotelomer alcohol 8+2; 24 mg/kg; oral; Male; Harlan Sprague Dawley
[19] = test system: Rat; settings: dosed: Fluorotelomer alcohol 8+2, 48 mg/kg, oral, Male, Harlan Sprague Dawley
[20] = test system: Rat; settings: 3 h; dosed: Fluorotelomer alcohol 8+2; 160 mg/kg; oral; Female; Harlan Sprague Dawley
[21] = test system: Rat; settings: dosed: Perfluorooctanoic acid, 6 mg/kg, iv, Male, F344; remark: listed apart in the source
[22] = test system: Rat; settings: dosed: Perfluorooctanoic acid, 6 mg/kg, oral, Male, Harlan Sprague Dawley
[23] = test system: Rat; settings: dosed: Perfluorooctanoic acid, 40 mg/kg, oral, Male, Harlan Sprague Dawley
[24] = test system: Rat; settings: dosed: Fluorotelomer alcohol 8+2, 48 mg/kg, oral, Male, Harlan Sprague Dawley; remark: listed apart in the source
[25] = test system: Rat; settings: dosed: Fluorotelomer alcohol 8+2, 40 mg/kg, oral, Female, Harlan Sprague Dawley
[26] = test system: Rat; settings: 48 h; dosed: Fluorotelomer alcohol 8+2; 160 mg/kg; oral; Female; Harlan Sprague Dawley
[27] = test system: Rat; settings: dosed: Perfluorooctanoic acid, 6 mg/kg, oral, Male, Harlan Sprague Dawley; remark: listed apart in the source
[28] = test system: Rat; settings: 9 h; dosed: Fluorotelomer alcohol 8+2; 24 mg/kg; oral; Male; Harlan Sprague Dawley
[29] = test system: Rat; settings: dosed: Perfluorooctanoic acid, 40 mg/kg, oral, Male, Harlan Sprague Dawley; remark: listed apart in the source
[30] = test system: Rat; settings: dosed: Perfluorooctanoic acid, 12 mg/kg, oral, Male, Harlan Sprague Dawley
[31] = test system: Rat; settings: 96 h; dosed: Perfluorooctanoic acid; 80 mg/kg; oral; Female; Harlan Sprague Dawley
[32] = test system: Rat; settings: dosed: Perfluorooctanoic acid, 80 mg/kg, oral, Female, Harlan Sprague Dawley

Question: `O=S(=O)([O-])C(F)(F)C(F)(F)C(F)(F)C(F)(F)C(F)(F)C(F)(F)C(F)(F)C(F)(F)F` [Perfluorooctane Sulfonate] was tested. Which concentration in plasma [1] did it give?
Answer: 6300 ng/mL

Question: What about the concentration in plasma [2] of the same compound?
Answer: 2740 ng/mL

Question: And the concentration in plasma [3]?
Answer: 18500 ng/mL

Question: And the concentration in plasma [4]?
Answer: 116000 ng/mL

Question: For `O=C(O)C(F)(F)C(F)(F)C(F)(F)C(F)(F)C(F)(F)C(F)(F)C(F)(F)C(F)(F)C(F)(F)F` [Perfluorodecanoic acid], which concentration in plasma [5] is on record?
Answer: 58300 ng/mL

Question: And the concentration in plasma ([6]; 12 h)?
Answer: 48200 ng/mL

Question: What about the concentration in plasma ([6]; 864 h) of the same compound?
Answer: 9720 ng/mL

Question: What about the concentration in plasma ([7]; 1 h) of the same compound?
Answer: 6120 ng/mL

Question: And the concentration in plasma ([7]; 192 h)?
Answer: 10600 ng/mL

Question: And the concentration in plasma ([7]; 2520 h)?
Answer: 931 ng/mL

Question: What about the concentration in plasma ([8]; 1 h) of the same compound?
Answer: 28500 ng/mL

Question: And the concentration in plasma ([8]; 192 h)?
Answer: 44700 ng/mL

Question: What about the concentration in plasma ([8]; 2520 h) of the same compound?
Answer: 6790 ng/mL

Question: What about the concentration in plasma ([9]; 6 h) of the same compound?
Answer: 8460 ng/mL

Question: And the concentration in plasma ([9]; 864 h)?
Answer: 2860 ng/mL

Question: What about the concentration in plasma ([10]; 2 h) of the same compound?
Answer: 27100 ng/mL

Question: And the concentration in plasma ([10]; 528 h)?
Answer: 13900 ng/mL

Question: What about the concentration in plasma ([10]; 2520 h) of the same compound?
Answer: 2940 ng/mL

Question: What about the concentration in plasma ([11]; 12 h) of the same compound?
Answer: 51400 ng/mL

Question: And the concentration in plasma ([11]; 864 h)?
Answer: 14200 ng/mL

Question: And the concentration in plasma ([12]; 0.5 h)?
Answer: 19600 ng/mL

Question: And the concentration in plasma ([12]; 24 h)?
Answer: 82800 ng/mL

Question: And the concentration in plasma ([12]; 1848 h)?
Answer: 11000 ng/mL

Question: What about the concentration in plasma ([13]; 6 h) of the same compound?
Answer: 96300 ng/mL

Question: And the concentration in plasma ([13]; 864 h)?
Answer: 29600 ng/mL

Question: What about the concentration in plasma ([14]; 12 h) of the same compound?
Answer: 108000 ng/mL

Question: And the concentration in plasma ([14]; 1200 h)?
Answer: 22100 ng/mL

Question: With `O=C(O)C(F)(F)C(F)(F)C(F)(F)C(F)(F)C(F)(F)C(F)(F)C(F)(F)F` [Perfluorooctanoic acid] as the compound, how does the concentration in plasma ([15]; 5 min) read?
Answer: 71900 ng/mL

Question: What about the concentration in plasma ([15]; 6 h) of the same compound?
Answer: 47800 ng/mL

Question: What about the concentration in plasma ([15]; 528 h) of the same compound?
Answer: 6460 ng/mL

Question: And the concentration in plasma ([16]; 3 h)?
Answer: 98200 ng/mL

Question: And the concentration in plasma ([16]; 48 h)?
Answer: 43.8 ng/mL

Question: What about the concentration in plasma ([17]; 6 h) of the same compound?
Answer: 293000 ng/mL

Question: What about the concentration in plasma ([17]; 192 h) of the same compound?
Answer: 84400 ng/mL

Question: And the concentration in plasma [18]?
Answer: 423 ng/mL

Question: What about the concentration in plasma ([19]; 48 h) of the same compound?
Answer: 1610 ng/mL

Question: What about the concentration in plasma ([19]; 192 h) of the same compound?
Answer: 1010 ng/mL

Question: What about the concentration in plasma [20] of the same compound?
Answer: 5460 ng/mL

Question: And the concentration in plasma ([21]; 0.5 h)?
Answer: 46800 ng/mL

Question: What about the concentration in plasma ([21]; 24 h) of the same compound?
Answer: 45600 ng/mL

Question: What about the concentration in plasma ([21]; 1200 h) of the same compound?
Answer: 331 ng/mL

Question: What about the concentration in plasma ([22]; 3 h) of the same compound?
Answer: 35000 ng/mL

Question: What about the concentration in plasma ([22]; 24 h) of the same compound?
Answer: 38800 ng/mL

Question: And the concentration in plasma ([22]; 1200 h)?
Answer: 3780 ng/mL

Question: What about the concentration in plasma ([23]; 1 h) of the same compound?
Answer: 136000 ng/mL

Question: And the concentration in plasma ([23]; 12 h)?
Answer: 101000 ng/mL

Question: What about the concentration in plasma ([24]; 1 h) of the same compound?
Answer: 409 ng/mL

Question: What about the concentration in plasma ([24]; 24 h) of the same compound?
Answer: 1590 ng/mL

Question: And the concentration in plasma ([25]; 0.75 h)?
Answer: 932 ng/mL

Question: And the concentration in plasma ([25]; 12 h)?
Answer: 704 ng/mL

Question: What about the concentration in plasma [26] of the same compound?
Answer: 78.2 ng/mL

Question: And the concentration in plasma ([27]; 1 h)?
Answer: 23500 ng/mL

Question: What about the concentration in plasma ([27]; 24 h) of the same compound?
Answer: 40200 ng/mL

Question: And the concentration in plasma ([27]; 864 h)?
Answer: 5920 ng/mL

Question: What about the concentration in plasma [28] of the same compound?
Answer: 1110 ng/mL

Question: And the concentration in plasma ([29]; 0.25 h)?
Answer: 63900 ng/mL

Question: What about the concentration in plasma ([29]; 9 h) of the same compound?
Answer: 171000 ng/mL

Question: And the concentration in plasma ([29]; 96 h)?
Answer: 49 ng/mL

Question: What about the concentration in plasma ([30]; 0.25 h) of the same compound?
Answer: 16700 ng/mL

Question: What about the concentration in plasma ([30]; 864 h) of the same compound?
Answer: 10100 ng/mL

Question: What about the concentration in plasma [31] of the same compound?
Answer: 170 ng/mL

Question: What about the concentration in plasma ([32]; 0.25 h) of the same compound?
Answer: 102000 ng/mL

Question: And the concentration in plasma ([32]; 9 h)?
Answer: 268000 ng/mL
